Hit rate of the full screen: of about 43,000 compounds, about 200 (0.47%) were called active. Roughly 12% stayed inconclusive and do not appear here. Calls come from the whole dose curve; as a rule, active = well fitted cell-killing curve with a large enough effect; inconclusive = small, poorly fitted or top-dose-only effect, or effect the other way; inactive = flat fitted curve, though single readings scatter. Some of the results follow.
experiment: Cell viability qHTS assay in S16 Pmp22-F2sN cells; conditions: S16 Pmp22-F2sN Schwann cells (luciferase reporters placed in the Pmp22 gene) viability, CellTiter-Glo, 24 h; series mostly up to 57.5 µM; activity change, negative = cytotoxicity: at the top concentration; note: nearly all actives have a fitted effect of over 65% in size
How it was run: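 S16 Schwann cells carrying the Pmp22-F2sN reporter, seeded in 1536-well format, were exposed to library compounds for 24 h at 37C. Viability was read as CellTiter-Glo luminescence after 15 min at room temperature.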
% is set by controls: 0 for no effect and ±100 for the full control effect.

SMILES	activity change, negative = cytotoxicity
O=C(NCc1ccccc1Cl)c1cnc(N2CCOCC2)c2ccccc12	inactive: 7.17%
Cc1ccc(-c2cc(-c3coc4ccc(Cl)cc4c3=O)c3c(n2)-c2ccccc2OC3)cc1	inactive: 20%
COc1ccc(OC)c(NC(=O)CC2C(=O)NCCN2C(=O)C(F)(F)F)c1 (stereo not given)	inactive: -1.31%
CCOc1ccc(NC(=O)CCc2nc3cccnc3n2-c2ccccc2)cc1	inactive: -0.162%
Cc1cc(C)c(NS(=O)(=O)c2cc(-c3onc(C)c3C)ccc2C)c(C)c1	inactive: 1.3%
CC1CCN(C(=O)c2ccc3c(c2)N(Cc2ccccc2)C(=O)c2ccccc2S3(=O)=O)CC1	inactive: -4.62%
O=C(CSc1oc(-c2ccccc2)nc1S(=O)(=O)c1ccc(Cl)cc1)NC1CCCCC1	inactive: -8.32%
COc1ccc(-n2nnc(-c3nsc(NC(=O)c4ccc(C)c(C)c4)n3)c2C)cc1Cl	inactive: -13%
CC(C)COC(=O)Cn1nnc2sc(-c3ccccc3)cc2c1=O	inactive: 15.8%
COCCCNC(=O)CSc1nc2cc3c(cc2c(=O)n1CCCCCC(=O)NCc1ccc(OC)cc1)OCO3	inactive: 4.3%
COc1ccc(NC(=O)Cn2nnc(C(=O)NCc3ccc4c(c3)OCO4)c2N)cc1	inactive: 0.022%
Cc1cccc(N2CCN(C(=O)c3ccc4c(Cl)c5c(nc4c3)CCCC5)CC2C)c1 (stereo not given)	inactive: 8.29%
O=C(Nc1cccc(C(F)(F)F)c1)c1cc(S(=O)(=O)N2CCCC2)c[nH]1	inactive: 0.369%
COc1ccccc1-c1noc(-c2ccc(NCc3ccco3)c([N+](=O)[O-])c2)n1	inactive: -16.7%
COc1ccc(NC(=O)Cn2c(=O)c3cc(Cl)ccc3n3nncc23)cc1	inactive: 1.4%
CCOc1ccc(C(=O)c2cn(CC(=O)Nc3ccc4c(c3)OCCO4)c3ccc(F)cc3c2=O)cc1	inactive: 9.89%
CC1CCN(C(=O)CSc2nnc(-c3ccccc3)o2)CC1	inactive: 8.99%
Cc1cccc(C)c1OC(=O)CSc1nnc(CNC(=O)c2ccccc2)o1	inactive: -0.276%
Cc1ccc(OCC(=O)Nc2ccc3nc(SCc4ccccc4)sc3c2)cc1	inactive: 0.392%
CCCCN(Cc1ccccc1)C(=O)CN(C)S(=O)(=O)c1ccc2c(c1)c(=O)n(C)c(=O)n2C	inactive: 0.818%
O=C(Nc1cc(C(F)(F)F)ccc1Cl)c1cc(S(=O)(=O)NCc2ccccc2)ccc1F	inactive: 2.64%
CCOC(=O)c1cccc(NC(=O)Cn2c(=O)nc(-c3ccccc3)c3ccccc32)c1	inactive: 0.808%
Cc1cccc(OCc2ccc(-c3nc(C#N)c(N4CCC(C(N)=O)CC4)o3)o2)c1	inactive: 1.38%
CCc1cc2c(cc3c(=O)n(CCCC(=O)NCc4ccccc4Cl)nc(CC)n32)s1	inactive: 10.3%

SMILES	activity change, negative = cytotoxicity
COCCCNC(=O)CC(c1cc(OC)c(OC)c(OC)c1)N1Cc2ccccc2C1=O (stereo not given)	inactive: 8.68%
COc1ccc(NC(=O)C(Cc2ccccc2)NS(=O)(=O)c2ccc(Br)s2)cc1OC (stereo not given)	inactive: -17.9%
COc1ccc(OC)c(CCNC(=O)c2cc3c(-c4ccccc4F)nn(C)c3s2)c1	inactive: -28.2%
CCOc1cc(C(=O)Nc2ccc3oc(-c4ccc(CC)cc4)nc3c2)cc(OCC)c1OCC	inactive: 11.9%
COc1ccccc1CCNC(=O)CCn1c(=O)c2cccn2c2ccc(F)cc21	inactive: 5.2%
Cc1cc(C)cc(NC(=O)CSCn2nnc3c(=O)[nH]c(Cc4ccc(F)cc4)nc32)c1	inactive: 2.47%
O=C(Cn1c(-c2cccs2)cc2cc(Cl)ccc21)NCc1ccccc1	inactive: 8.75%
CCCSc1nc(=O)c2c(n1C)NC(=O)CC2c1cccc(F)c1F (stereo not given)	inactive: 7.3%
CCc1ccccc1NC(=O)CN(Cc1ccccc1)S(=O)(=O)c1ccc2nc(C)sc2c1	inactive: -10.5%
CCOC(=O)c1c(NC(=O)CCCOc2ccc(C(C)(C)C)cc2)sc2c1CCC2	inactive: -0.385%
COc1ccc(N2CCN(C(=O)Cc3c(C(=O)O)c(C)cn3C)CC2)cc1	inactive: -0.837%
COc1ccc(-n2nc3ccc(NC(=O)COc4ccc(C)c(C)c4)cc3n2)cc1	inactive: 16.5%
CC(=O)c1cccc(NC(=O)c2cnn(-c3cccc(C)c3)c2-n2cccc2)c1	inactive: -0.874%
CCC(=O)N1CCc2cc(Br)cc(S(=O)(=O)NCCc3ccccc3Cl)c21	inactive: -11.6%
CCc1cc(C(=O)Nc2cnn(Cc3ccc(F)cc3)c2)no1	inactive: -13.2%
Cc1cccc(NC(=O)Cn2cc(S(=O)(=O)c3ccc(F)cc3)c(=O)c3cc4c(cc32)OCO4)c1	inactive: 4.1%
O=C(CN1Cc2ccccc2C1=O)Nc1cc(F)ccc1F	inactive: 0.439%
Cc1cccc(N(C)C(=O)C(Cc2ccccc2)NS(=O)(=O)c2cccc3nsnc23)c1 (stereo not given)	inactive: -18.6%
Cc1ccc(C)c(NC(=O)N2CC=C(c3c[nH]c4ccccc34)CC2)c1	inactive: 4.21%
Cc1cc(C)c(NC(=O)CSc2nc(C)cc(C)c2C#N)c(C)c1	inactive: -3.75%
COc1ccccc1OCC(=O)N(Cc1ccc(N(C)C)cc1)CC1CCCO1 (stereo not given)	inactive: -12.6%
CCOc1ccc(-n2c(SCC(=O)Nc3ccccc3OC)nc3c(oc4ccccc43)c2=O)cc1	inactive: 20.8%
CC(=O)c1ccc(NC(=O)C2CCN(S(=O)(=O)c3ccc4c(c3)CCCN4C(=O)C3CCC3)CC2)cc1	inactive: 2.92%
Cc1ccc2oc(=O)c3cnn(CC(=O)N(C)c4ccc(F)cc4)c3c2c1	inactive: 16.7%

SMILES	activity change, negative = cytotoxicity
COc1ccc(Nc2ccc3cc(S(=O)(=O)N4CCCC4)ccc3n2)cc1Cl	inactive: -19.8%
Cc1c(F)cccc1NC(=O)C1CCCN1S(=O)(=O)c1ccc(F)cc1 (stereo not given)	inactive: -8.22%
COc1ccccc1CNC(=O)c1cn(C)c2ccc(S(=O)(=O)N3CCC(C)CC3)cc2c1=O	inactive: 1.16%
COc1cc(OC)c(NC(=O)c2ccc3nc(C(C)C)oc3c2)cc1Cl	inactive: -34.7%
Cc1ccc2[nH]cc(C(c3ccccc3)c3cccs3)c2c1 (stereo not given)	inactive: 12.5%
O=C(c1ccc2c(c1)OCO2)c1cn(Cc2ccc(F)cc2)c2ccccc2c1=O	inactive: 6.61%
Cn1nc(C(=O)N2CCN(c3ccccc3)CC2)c2c1-c1ccccc1SC2	inactive: 2.75%
CCCCN(CC)C(=O)Cn1c(=O)n(-c2ccc(OCC)cc2)c(=O)c2c3c(sc21)CCC3	inactive: 9.06%
CC(=O)c1cccc(-n2c(=O)c3c4c(sc3n(Cc3ccccc3Cl)c2=O)CN(C(C)=O)CC4)c1	inactive: 16%
CCCOC(=O)c1c(NC(=O)c2nc3ncccn3n2)sc(C(=O)OCC)c1C	inactive: -0.297%
COc1cc(OC)c(C2C=C(C(=O)O)Nc3ncnn32)cc1OC (stereo not given)	inactive: 15.5%
CCOc1ccc(OCC)c(NC(=O)c2cc(C)nc3c2c(C)nn3-c2cccc(Cl)c2C)c1	inactive: -13.2%
CCOc1ccc(NC(=O)Cn2c(=O)n(CCc3ccccc3)c(=O)c3c4c(sc32)CN(C(C)=O)CC4)cc1	inactive: 5.23%
CCc1ccc(NC(=O)CSC2=Nc3ccccc3C3=NC(CCC(=O)NCc4ccccc4OC)C(=O)N23)cc1 (stereo not given)	inactive: -0.291%
CCOCCCNC(=O)c1cnc2sc(N3CCCCCC3)nn2c1=O	inactive: 8.42%
Cc1ccc(CC(=O)N(Cc2nc(-c3ccc(C)cc3)no2)C(C)C)cc1	inactive: -21%
O=C(CCc1nc(-c2ccccc2F)no1)Nc1cccc(C(F)(F)F)c1	inactive: -17.2%
Cc1nn(-c2ccccc2)c(OC(=O)c2ccc(Br)cc2)c1S(=O)(=O)c1ccccc1	inactive: 5%
Cc1cc2nn(-c3ccc(Cl)cc3)nc2cc1NC(=O)C(C)C	inactive: -2.38%
COCCCNc1ncnc2c1c(-c1ccccc1)cn2-c1ccc(C)c(Cl)c1	inactive: -2.49%
CCn1c(CN2CCN(c3cccc(Cl)c3)CC2)nc2c1c(=O)[nH]c(=O)n2C	inactive: 3.42%
O=C(COc1ccc(Cl)cc1)Nc1cc(-c2ccccc2)no1	inactive: -4.19%
COc1ccc(OC)c(NC(=O)CN2C(=O)CC(c3ccco3)Sc3ccccc32)c1 (stereo not given)	inactive: -1.53%
COc1ccc2c(c1)c1c(c(=O)n(-c3ccccc3C)c(=O)n1Cc1ccccc1C)n2C	inactive: -0.434%

SMILES	activity change, negative = cytotoxicity
Cn1c(=O)c2sccc2n2c(CCCC(=O)Nc3ccc(F)cc3F)nnc12	inactive: 4.97%
CC(=O)Nc1cc(C(=O)NCc2ccccc2)ccc1Sc1ccc(C)cc1	inactive: 1.28%
Cc1cccc(N2CCN(C(=O)Cn3c(=O)c4cccn4c4ccc(F)cc43)CC2C)c1 (stereo not given)	inactive: 0.933%
CNS(=O)(=O)c1cn(CC(=O)Nc2ccc(F)cc2F)cc1S(=O)(=O)NC	inactive: 0.418%
Cc1ccc(N2CC(c3nnc(Cc4ccc(Cl)cc4)o3)CC2=O)cc1 (stereo not given)	inactive: 0.159%
O=C(NC1CCCCC1)c1ccc(Cn2c(SCc3cccc(F)c3)nc3cccnc32)cc1	inactive: -29%
CN(C(=O)CSc1cn(CC(=O)N2CCCCCC2)c2ccccc12)c1ccccc1	inactive: -15.2%
Cc1ccc(CNC(=O)C(C(C)C)N2Cc3ccccc3C2=O)cc1 (stereo not given)	inactive: -6.38%
CCN(c1ccc(OC)cc1)S(=O)(=O)c1c(C(=O)N2CCCCCC2)c(C)n(C)c1C	inactive: 9.79%
COc1ccc(N2CCN(CC(O)COc3ccccc3C(C)(C)C)CC2)cc1 (stereo not given)	inactive: 12.7%
CCc1ccccc1Nc1nn2c(=O)c3ccc(C(=O)NCCc4ccccc4)cc3nc2s1	inactive: 6.17%
Cc1c(Cl)cccc1NC(=O)CN1C(=O)c2ccccc2Sc2ncccc21	inactive: 17.3%
Cc1cccc(C(=O)NC2(C(F)(F)F)N=C(c3ccccc3)N(Cc3ccccc3)C2=O)c1 (stereo not given)	inactive: 1.17%
CCOc1ccc2c(c1)c(=O)c(S(=O)(=O)c1ccc(C)cc1)cn2CC(=O)Nc1ccc(C)cc1	inactive: 0.123%
CCn1c(=O)c2cc(C(=O)NCCc3cccc(C)c3)sc2c2ccccc21	inactive: 5.31%
Cc1ccc(-c2c(CN3CCN(c4cc(Cl)ccc4C)CC3)csc2C)cc1	inactive: 6.81%
CC(=O)N1CCc2c(sc3c2c(=O)n(-c2ccccc2Cl)c(=O)n3C)C1	inactive: -5.84%
O=C(CSc1nc2ccccc2n1CC(=O)Nc1ccc(F)cc1F)Nc1ccc(F)cc1	inactive: 3.89%
Cc1nc(-c2ccc(F)cc2)sc1CCNC(=O)c1ccccc1	inactive: 12.6%
CCCN(C(=O)C1CCN(S(=O)(=O)c2c(C)noc2/C=C/c2ccc(C)cc2)CC1)c1ccccc1F	inactive: 2%
CCN1CCOC(=O)C1CC(=O)Nc1ccccc1C(F)(F)F (stereo not given)	inactive: -3.04%
COC(=O)c1cc(C)nc2c1c(=O)nc(SCc1cc(C)ccc1C)n2C1CC1	inactive: -5.35%
CCCN(Cc1cc2cc(C)ccc2[nH]c1=O)C(=O)c1cccc(Cl)c1	inactive: 2.83%

Source: PubChem BioAssay AID1508642 (National Center for Advancing Translational Sciences (NCATS), 2021)
